These results are taken from the supplement of paper PMC10338343.

± gives the standard deviation. Whole data set: some 5,500 sequences, median “pre-steady-state target cleavage rate” near 0.1, cut for the highest 2% near 0.64. Only a part is listed here, and it is no random draw.

The test has as its system MIWI (PIWIL1) piRISC loaded with piRNA #2 (30 nt). Put plainly: pre-steady-state target cleavage rate (min^-1); MIWI and MILI are mouse PIWI proteins and EfPiwi is from a freshwater sponge; tags in brackets are library labels; higher = faster piRNA-guided slicing of the target. Particulars: guide: piRNA #2 5'p-UUAGGUAACCCAGUAGAUCCAGAGGAAUUC; auxiliary factor: 500 nM mouse GTSF1. The gist of the method:
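The method was Cleave-'n-Seq, in which uncleaved targets from a transcribed, DNA-blocked target RNA library were sequenced after exposure to active affinity-purified piRISC carrying one synthetic guide, with or without GTSF1 partner protein. Reactions contained 0.1 nM library, 1 nM piRISC and, where present, 500 nM GTSF1 in HEPES–potassium acetate buffer at 33 °C for 0–8 or 0–960 min. Reads were normalised to depth and to weakly complementary targets, three trials were pooled, and k3 was capped at 0.0001 min^-1. The pre-steady-state cleavage rate came from a burst-and-steady-state fit.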
Turning to CUUAAGGAGACCUACAACUGGGUAACCUAA, the “pre-steady-state target cleavage rate” value is below 0.0001.

With CAAUUCCUCUGGAACUAGUGGGUUACCUAA, the “pre-steady-state target cleavage rate” value was 0.258 ± 0.029.

For CUUAUCCUCUGGAUGAUCUGGGUUACCUAA, the “pre-steady-state target cleavage rate” value is 0.00979 ± 0.0035.

On to CUUAAGGAGACGACCUACUGGGUUACCUAA, for which the “pre-steady-state target cleavage rate” value was 0.0052 ± 0.0021.

Regarding CAAUUCCUGUGGAUCUACUGGGUUACCUAA, the “pre-steady-state target cleavage rate” value was 0.425 ± 0.051.

Turning to CUUUUCCUCUGGAUCUACUGGGAUACGUAA, the “pre-steady-state target cleavage rate” value amounted to 0.229 ± 0.042.

With CUUAAGCUCUCCUUCUACUGGGUUACCUAA, the “pre-steady-state target cleavage rate” value turned out to be 0.224 ± 0.024.

With GAAUUCCUUCUGGAUCUACUGGGUUACCUAA, the “pre-steady-state target cleavage rate” value was found to be 0.403 ± 0.041.

For CUUAAGGUCUGGAGUCUACUGGGUUACCUAA, the “pre-steady-state target cleavage rate” value is 0.0832 ± 0.031.

CUUUUCCUCUGGAUCUACUGGGCUUACCUAA: the “pre-steady-state target cleavage rate” value amounted to 0.0685 ± 0.013.

Consider CUAUUCCUCUGGAUCUACUGGGUAACGUAA, for which the “pre-steady-state target cleavage rate” value was 0.304 ± 0.054.

As for CUUUUCGUCUGGAACUACUGGGUUACCUAA, the “pre-steady-state target cleavage rate” value came to 0.364 ± 0.035.

As for CUUAAGGACUGGAUCAACUGGGUUAGCUAA, the “pre-steady-state target cleavage rate” value was found to be 0.0166 ± 0.015.

Turning to CAAUUCCUCUGGUUCUACUCGGUUACCUAA, the “pre-steady-state target cleavage rate” value came to 0.167 ± 0.014.

For the sequence CUUAAGGACUCGAUCUACUGGGUUACCUUA, the “pre-steady-state target cleavage rate” value amounted to 0.00924 ± 0.0031.

As for CUUAUCCUGUGGAUCUACUCGGUUACCUAA, the “pre-steady-state target cleavage rate” value came to 0.0654 ± 0.019.

With CUUAUCCUCUGGAUCUAGUGGGUUACCAAA, the “pre-steady-state target cleavage rate” value is 0.12 ± 0.018.

AAAUUCCUCUGGAUCUACUGGGUUACCUAA: the “pre-steady-state target cleavage rate” value came to 0.341 ± 0.062.

For the sequence CACAUUCCUCUGGAUCUACUGGGUUACCUAA, the “pre-steady-state target cleavage rate” value worked out at 0.5 ± 0.057.

Turning to CUUAAGGACAGGAUCUACUGGGUUACGUAA, the “pre-steady-state target cleavage rate” value amounted to 0.16 ± 0.045.

Take CUUAAGGAGACGGAUCUACUGGGUUACCUAA: the “pre-steady-state target cleavage rate” value came to 0.0379 ± 0.0064.

As for CUAUUCGUCUGGAUCUACUGGGAUACCUAA, the “pre-steady-state target cleavage rate” value was 0.331 ± 0.049.

On to CUUAUCCUCUGGAUCUACUGGGAUAGCUAA, for which the “pre-steady-state target cleavage rate” value stood at 0.226 ± 0.059.

With CUAUUCCUCUGGGAUCUACUGGGUUACCUAA, the “pre-steady-state target cleavage rate” value is 0.514 ± 0.042.

On to CUUAAGCUCUGGAUGUACUGGGAUACCUAA, for which the “pre-steady-state target cleavage rate” value was 0.0841 ± 0.011.

Consider CUUAAGGUCUGGAUCUACAGGGUUACGUAA, for which the “pre-steady-state target cleavage rate” value was found to be 0.178 ± 0.021.

In the case of CAAUUCCUCUCGAUCAACUGGGUUACCUAA, the “pre-steady-state target cleavage rate” value amounted to 0.721 ± 0.053.

As to CUAUUGCUCUGGAUCUACUGGGUUACCAAA, the “pre-steady-state target cleavage rate” value turned out to be 0.252 ± 0.035.

CAAAUCCUCUGGAACUACUGGGUUACCUAA: the “pre-steady-state target cleavage rate” value is 0.445 ± 0.034.

In the case of CUAAUGCUCUGGAUCUACUGGGUUACCUAA, the “pre-steady-state target cleavage rate” value came out at 0.105 ± 0.019.

Turning to “CUUAAGGAGAGGAUCUACUGGGUUACCUAA [g2:g20:cont:t1A]”, the “pre-steady-state target cleavage rate” value came out at 0.0369 ± 0.012.

With CUAUUCCUCUGGAUUACUGGGUUACCUAA, the “pre-steady-state target cleavage rate” value turned out to be 0.492 ± 0.037.

For CUUUUCCUCUGCAACUACUGGGUUACCUAA, the “pre-steady-state target cleavage rate” value was determined as 0.393 ± 0.037.

Take GAAUUCCUCUGGAUGAUCUGGGUUACCUAA: the “pre-steady-state target cleavage rate” value worked out at 0.00973 ± 0.0039.

For CUUAUCCUGUGGAUGUACUGGGUUACCUAA, the “pre-steady-state target cleavage rate” value came out at 0.45 ± 0.061.

With CUUAAGGACUGGAACUACUGGGUUACCUAA, the “pre-steady-state target cleavage rate” value turned out to be 0.0904 ± 0.048.

With CUAUUCCUCUGGAUCAACUGGGAUACCUAA, the “pre-steady-state target cleavage rate” value is 0.17 ± 0.022.

On to CAAUUGCUCUGGAUCUACUGCGUUACCUAA, for which the “pre-steady-state target cleavage rate” value was found to be 0.344 ± 0.052.

For the sequence GAAUUCCUCUGGAGCUACUGGGUUACCUAA, the “pre-steady-state target cleavage rate” value stood at 0.28 ± 0.032.

Consider CUUUUCCUCAGGAUCUACAGGGUUACCUAA, for which the “pre-steady-state target cleavage rate” value was 0.277 ± 0.026.

As to CUUAACCUCUGGAUCUACUGGGUUACACUAA, the “pre-steady-state target cleavage rate” value was determined as 0.344 ± 0.042.

Take CUUAUCCUCUGGAUCUACUGGGUAACCAAA: the “pre-steady-state target cleavage rate” value stood at 0.217 ± 0.064.

GAAUUCCACUGGAACUACUGGGUUACCUAA: the “pre-steady-state target cleavage rate” value came out at 0.308 ± 0.043.

For the sequence CUUUUCCUCUGGAGUCUACUGGGUUACCUAA, the “pre-steady-state target cleavage rate” value was 0.336 ± 0.035.

As to CUAUUCCUCUGGAUCUACUGGGUUUGCUAA, the “pre-steady-state target cleavage rate” value was 0.342 ± 0.064.

With CUUAAGGACUGGAUCUACUUGGUUACCUAA, the “pre-steady-state target cleavage rate” value stood at 0.00577 ± 0.0058.

Consider CAAUUCCGUCUGGAUCUACUGGGUUACCUAA, for which the “pre-steady-state target cleavage rate” value came out at 0.564 ± 0.063.

Take CUUAAGGACUGGAUGUACUGCGUUACCUAA: the “pre-steady-state target cleavage rate” value was found to be 0.0446 ± 0.037.

For the sequence CUAUUGCUCUGGAUCUACUGGGUUACCUAA, the “pre-steady-state target cleavage rate” value worked out at 0.125 ± 0.029.

As for CUAUUCGUCUGGAUCUACUGGGUUACCUUA, the “pre-steady-state target cleavage rate” value was found to be 0.355 ± 0.049.

Turning to CUUAAGCUCUGGAACUACUGGGUUACCUAA, the “pre-steady-state target cleavage rate” value turned out to be 0.148 ± 0.021.

With CUUAAGGUCUGGAUCUACUGGGUUAUCUAA, the “pre-steady-state target cleavage rate” value was found to be 0.311 ± 0.048.

On to GAAUUCCUCUGGAUCUUCUGGGUUAGCUAA, for which the “pre-steady-state target cleavage rate” value was found to be 0.322 ± 0.051.

In the case of CAAUUCCUCUGGAUCUACUGGGUUAGGAAA, the “pre-steady-state target cleavage rate” value stood at 0.00536 ± 0.0041.

Consider CUUAAGCUCUGGUUCUACUGGGUUAGCUAA, for which the “pre-steady-state target cleavage rate” value was found to be 0.0396 ± 0.014.

Take CUUAAGGAGUGGAUCUACUGUGUUACCUAA: the “pre-steady-state target cleavage rate” value was 0.326 ± 0.065.

As to CUUAAGGUCUGGAAUCUACUGGGUUACCUAA, the “pre-steady-state target cleavage rate” value was 0.137 ± 0.026.

CUUAAGGAGUGGCUCUACUGGGUUACCUAA: the “pre-steady-state target cleavage rate” value came out at 0.144 ± 0.014.

Take CAAUUCCUCUCCAUCUACUGGGUUACCUAA: the “pre-steady-state target cleavage rate” value is 0.829 ± 0.057.

Turning to CUAUUCCUGUGGAUCUACUGGGUUUCCUAA, the “pre-steady-state target cleavage rate” value stood at 0.29 ± 0.041.

With CUAUUGCUCUGGAUCUACAGGGUUACCUAA, the “pre-steady-state target cleavage rate” value is 0.0914 ± 0.014.

Turning to CUUUUCCUCUGCAUCUACAGGGUUACCUAA, the “pre-steady-state target cleavage rate” value is 0.219 ± 0.019.

Consider CUUAACCUGUGGAUCUACUGGGUUACCUUA, for which the “pre-steady-state target cleavage rate” value is 0.289 ± 0.021.

Take CAAAUCCUCUGGAUCUACUGGGUUAGCUAA: the “pre-steady-state target cleavage rate” value came to 0.367 ± 0.062.

For CUUAAGCUCAGGAUCUAGUGGGUUACCUAA, the “pre-steady-state target cleavage rate” value stood at 0.0534 ± 0.013.

On to CUAUUCCUCUGCAUCUACAGGGUUACCUAA, for which the “pre-steady-state target cleavage rate” value worked out at 0.25 ± 0.028.

In the case of GAAUUCCUCUGGAUCUACUGGGUUAGCCUAA, the “pre-steady-state target cleavage rate” value came to 0.299 ± 0.036.

On to CAAGUUCCUCUGGAUCUACUGGGUUACCUAA, for which the “pre-steady-state target cleavage rate” value was 0.287 ± 0.068.

Turning to CUUAACCACUGGUUCUACUGGGUUACCUAA, the “pre-steady-state target cleavage rate” value amounted to 0.432 ± 0.037.

With CUUAACCUCUGGAUCUACUGGGUUAGCCUAA, the “pre-steady-state target cleavage rate” value amounted to 0.266 ± 0.042.

For the sequence CUACUUCCUCUGGAUCUACUGGGUUACCUAA, the “pre-steady-state target cleavage rate” value was determined as 0.256 ± 0.046.
